How the values were obtained:
[1] = target: T1, rhGRP94 CTD fragment (part 4, Glu 602-Glu 799) (Homo sapiens, UniProt P14625); assay: Epitope comparison ELISA, rhGRP94 fragment part 4; type: binding; conditions: antibody 1 μg/mL, 100 ng fragment
T1 construct: Part; 4 (Glu 602-Glu 799) of the human GRP94 gene (Gene ID: 7184); made in house; host or cells: Expi293 expression system (pcDNA 3.4)
Description: To determine which portion (or domain) of the GRP94 protein is bound by the developed antibodies, GRP94 fragments part. 1 and part. 4 were constructed wherein part. 1 was composed of the N-terminal domain (NTD), the Ca^2+ binding domain, the middle domain (MD), and the C-terminal domain (CTD) while part. 4 was derived from part. 1 by cutting off the NTD, the Ca^2+ binding domain, and the MD. In brief, Part. 1 (Asp 22-Glu 799) and Part. 4 (Glu 602-Glu 799) of the human GRP94 gene (Gene ID: 7184) were synthesized and subcloned into pcDNA 3.4 (Invitrogen) mammalian expression vector to finally recombinant DNAs. Using the Expi293 expression system (Invitrogen), the proteins were expressed and purified. The purified antigens part. 1 and part. 4 were analyzed for molecular weight by SDS-PAGE.
Next, ELISA was carried out to examine whether the four antibodies of the present disclosure bind to part 1 and part 4. First, 100 ng of each of the rhGRP94 fragment parts 1 and 4 was fixed to a high binding plate by incubation at 4° C. for 14 hours (overnight binding, 14 hrs). The same amount of BSA was used as a negative control. Then, the plate was blocked with 3% BSA, followed by incubation at 37° C. for 2 hours with 100 μL containing each of the anti-GRP94 antibodies (B5, E5, 2H5, and 3G7) of the present disclosure at a density of 1 μg/mL. […] Absorbance at 450 nm was read.

[2] = tested on: HT29 cells; assay: In vitro CRC proliferation assay, HT29; type: cell-based, human; conditions: 20 μg/mL
Experimental: (§1) The four anti-GRP94 human IgG antibodies B5, E5, 2H5, and 3G7 of the present disclosure were examined in vitro for effect on CRC cell proliferation. […] The culture medium was removed by suction and the cells were washed with 10 mL of phosphate buffered saline (hereinafter PBS). After removal of PBS by suction, the cells were treated 2 mL of TrypLE Express Enzyme at 37° C. for 3 minutes in a 5% CO2 incubator. Thereafter, the cells were added with 8 mL of the culture medium, transferred to 15-mL tube, and centrifuged at 500×g for 5 minutes. After removal of the supernatant, the cells were suspended in the culture medium. From a small portion of the cell suspension, the cells were counted using the Countess II Automated Cell Counter. […] The 96-well plates were mounted on the Incucyte Zoom system. With the microscope magnification set at 4×, images were collected at intervals of 2 hours for 72 hours. From the collected images, cell growth was monitored using the IncuCyte FLR live content imaging system (Essen Bioscience, Ann Arbor, MI, USA).

[3] = Protein aggregation index (UV absorbance 280/340 nm); type: physicochemical; conditions: antibody in PBS; 100×(Abs340/[Abs280−Abs340]); control HCl-aggregated GRP94 antigen
Experimental: To evaluate the production the antibodies (B5, E5, 2H5, and 3G7) of the present disclosure and the antibody aggregation after purification, each of the antibodies was added to PBS and absorbance was read at 280 nm and 340 nm using NanoDrop 2000 (Thermo Fisher Scientific). The protein aggregation index was calculated from UV absorbance according to the following equation. As a control, the GRP94 antigen that was induced by treatment with HCl to aggregate was used. Protein Aggregation Index=100×(Abs340/[Abs280−Abs340]) Equation 1

[4] = target: T2, recombinant human GRP94 (Homo sapiens, UniProt P14625); assay: ELISA binding to recombinant human GRP94; conditions: high specificity stated for human and rat antigens
T2 construct: made in house; host or cells: Expi293 cells (pcDNA 3.4)
Experimental: (§2) Each well of 96-well plates was coated with 0.1 μg of recombinant human GRP94 (rhGRP94), blocked with 3% (w/v) bovine serum albumin (BSA) in phosphate buffered saline (PBS) for 2 hours at 37° C., and incubated with 100 μL of GRP94 targeting IgG (20 μg/mL) for 2 hours at 37° C. The plates were washed thrice with 0.05% PBS-T, and 100 μL of a 500:1 dilution of the secondary antibody anti-human Fc Ab (Sigma-Aldrich) was added to each well. Incubation at 37° C. for 1 hour was followed by three rounds of washing with 0.05% PBS-T. Then, 100 μL of 3,3′,5,5′-tetramethylbenzidine (1-step ultra TMB) substrate solution was added to each well. Finally, optical densities were measured at 450 nm using a microplate reader (Synergy H1, BioTek).
The four GRP94 IgGs (B5, E5, 2H5, and 3G7) of the present disclosure were measured for equilibrium dissociation constant (KD). In this regard, each well of 96-well plates was coated with 100 ng of rhGRP94 and blocked with 3% (w/v) bovine serum albumin (BSA) in PBS at 37° C. for 2 hours. Next, the plates were incubated with a concentration gradient of 0 nM to 500 nM of each clone for the GRP94 IgGs at 37° C. for 2 hours. […]
(§3) After 96-well plates were coated with BSA, recombinant human GRP94, recombinant rat GRP94, and recombinant monkey GRP94, their binding affinity for each antibody (B5, E5, 2H5, or 3G7) was measured by ELISA.

[5] = target: recombinant rat GRP94 (Rattus norvegicus, UniProt Q66HD0); assay: ELISA binding to recombinant rat GRP94; conditions: high specificity stated for human and rat antigens
Experimental: as §2, §3

[6] = tested on: HCT116 cells; assay: In vitro CRC proliferation assay, HCT116; type: cell-based, human; conditions: 20 μg/mL, end point, relative to the control PBS
Experimental: The four anti-GRP94 human IgG antibodies B5, E5, 2H5, and 3G7 of the present disclosure were examined in vitro for effect on CRC cell proliferation. For use in the efficacy assay, the four cetuximab-resistant colorectal cancer cell lines HCT116, HT29, LoVo, and HCT-8 were each grown in a culture medium (HCT116, HCT8, HT29, and LoVo: RPMI1640+10% FBS+1% Penicillin-Streptomycin) at 37° C. in T-75 flask in a 5% CO2 incubator until reaching about 80-90% confluency. The culture medium was removed by suction and the cells were washed with 10 mL of phosphate buffered saline (hereinafter PBS). After removal of PBS by suction, the cells were treated 2 mL of TrypLE Express Enzyme at 37° C. for 3 minutes in a 5% CO2 incubator. Thereafter, the cells were added with 8 mL of the culture medium, transferred to 15-mL tube, and centrifuged at 500×g for 5 minutes. After removal of the supernatant, the cells were suspended in the culture medium. From a small portion of the cell suspension, the cells were counted using the Countess II Automated Cell Counter. […] The 96-well plates were mounted on the Incucyte Zoom system. With the microscope magnification set at 4×, images were collected at intervals of 2 hours for 72 hours. From the collected images, cell growth was monitored using the IncuCyte FLR live content imaging system (Essen Bioscience, Ann Arbor, MI, USA).

[7] = tested on: HCT116 subcutaneous xenograft; assay: Tumor growth inhibition by sole administration, colorectal xenograft model; type: in vivo, Balb/c nude mice; conditions: 10 mg/kg intravenous twice per week for six weeks; n=9
Description: For use in assaying in-vivo efficacy of the four antibodies of the present disclosure, a subcutaneous xenograft mouse model was established by injecting the metastatic colorectal cancer cell line HCT116 (5×10^6 cells) into 6-week-old Balb/c nude mice.

[8] = tested on: LoVo cells; assay: In vitro CRC proliferation assay, LoVo; type: cell-based, human; conditions: 20 μg/mL
Experimental: as §1

[9] = In vivo hepatotoxicity and nephrotoxicity in colorectal xenograft model; parameters: species or system Balb/c nude mice; conditions: mouse, 10 mg/kg
Experimental: To assay the four antibodies of the present disclosure for in vivo hepatotoxicity and nephrotoxicity, the same xenograft model as in Example 11 weighed every week. After six weeks of the experiment, GOT (glutamic oxaloacetic transaminase), GPT (glutamate pyruvate transaminase), and TBIL (total bilirubin) were measured for hepatotoxicity assay while BUN (blood urea nitrogen) and CRE (creatinine) were measured for nephrotoxicity assay. The results are depicted in FIGS. 27a and 27b.

[10] = target: recombinant monkey GRP94 (Macaca fascicularis, UniProt Q4R520); assay: ELISA binding to recombinant monkey GRP94
Experimental: as §2, §3

[11] = tested on: HCT8 cells; assay: In vitro CRC proliferation assay, HCT8; type: cell-based, human; conditions: 20 μg/mL, 72 hours, MOCK 4.8±0.25
Experimental: as §1

[12] = end point, relative to the control PBS

T1 sequence (P14625 602-799): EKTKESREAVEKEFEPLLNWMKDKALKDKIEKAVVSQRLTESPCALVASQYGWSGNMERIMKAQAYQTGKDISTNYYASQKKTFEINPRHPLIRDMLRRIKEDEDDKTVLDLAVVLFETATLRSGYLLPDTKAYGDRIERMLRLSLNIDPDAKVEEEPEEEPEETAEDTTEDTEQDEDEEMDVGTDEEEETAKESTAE
Chain of recombinant rat GRP94 (Q66HD0 22-804): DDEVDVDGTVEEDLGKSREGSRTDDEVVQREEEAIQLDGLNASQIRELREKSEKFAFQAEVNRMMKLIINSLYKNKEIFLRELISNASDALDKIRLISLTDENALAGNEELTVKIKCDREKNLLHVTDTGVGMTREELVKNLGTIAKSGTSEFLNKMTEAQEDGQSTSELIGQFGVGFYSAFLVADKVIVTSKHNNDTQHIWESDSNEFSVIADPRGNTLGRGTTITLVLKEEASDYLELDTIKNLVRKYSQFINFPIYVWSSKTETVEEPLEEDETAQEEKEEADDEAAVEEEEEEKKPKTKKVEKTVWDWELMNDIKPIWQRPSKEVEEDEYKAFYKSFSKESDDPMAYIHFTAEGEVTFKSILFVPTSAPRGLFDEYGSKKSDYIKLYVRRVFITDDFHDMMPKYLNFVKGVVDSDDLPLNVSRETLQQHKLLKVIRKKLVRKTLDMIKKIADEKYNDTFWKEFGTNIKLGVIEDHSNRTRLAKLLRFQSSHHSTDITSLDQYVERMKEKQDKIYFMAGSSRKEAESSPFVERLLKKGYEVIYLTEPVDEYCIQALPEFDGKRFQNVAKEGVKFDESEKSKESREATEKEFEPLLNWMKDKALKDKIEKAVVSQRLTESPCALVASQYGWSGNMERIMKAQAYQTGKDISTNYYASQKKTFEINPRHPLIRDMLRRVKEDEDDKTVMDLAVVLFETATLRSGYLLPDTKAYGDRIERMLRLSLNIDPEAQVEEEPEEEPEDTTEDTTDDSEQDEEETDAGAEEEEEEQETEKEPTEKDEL
Chain of recombinant monkey GRP94 (Q4R520 22-804): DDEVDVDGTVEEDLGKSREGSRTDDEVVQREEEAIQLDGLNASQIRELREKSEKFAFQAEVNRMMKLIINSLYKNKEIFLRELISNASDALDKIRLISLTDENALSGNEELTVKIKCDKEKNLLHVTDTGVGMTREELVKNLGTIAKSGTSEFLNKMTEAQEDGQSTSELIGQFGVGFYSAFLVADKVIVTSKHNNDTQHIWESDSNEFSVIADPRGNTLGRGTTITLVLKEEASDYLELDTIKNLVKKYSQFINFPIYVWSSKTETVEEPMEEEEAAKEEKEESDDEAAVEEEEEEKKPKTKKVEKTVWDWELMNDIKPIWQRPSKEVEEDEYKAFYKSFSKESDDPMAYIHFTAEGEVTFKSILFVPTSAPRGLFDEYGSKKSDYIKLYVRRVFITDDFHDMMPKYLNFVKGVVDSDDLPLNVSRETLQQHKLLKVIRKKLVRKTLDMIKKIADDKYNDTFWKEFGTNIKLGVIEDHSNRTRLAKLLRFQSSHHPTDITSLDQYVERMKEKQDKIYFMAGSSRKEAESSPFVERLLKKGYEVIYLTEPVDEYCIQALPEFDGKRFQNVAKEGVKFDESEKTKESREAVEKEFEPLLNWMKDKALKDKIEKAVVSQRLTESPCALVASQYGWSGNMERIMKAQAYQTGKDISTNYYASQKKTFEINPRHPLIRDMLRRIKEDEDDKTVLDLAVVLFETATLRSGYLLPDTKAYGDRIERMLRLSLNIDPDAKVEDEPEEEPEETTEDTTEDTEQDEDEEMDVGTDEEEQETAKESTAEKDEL
T2 sequence (P14625 22-803): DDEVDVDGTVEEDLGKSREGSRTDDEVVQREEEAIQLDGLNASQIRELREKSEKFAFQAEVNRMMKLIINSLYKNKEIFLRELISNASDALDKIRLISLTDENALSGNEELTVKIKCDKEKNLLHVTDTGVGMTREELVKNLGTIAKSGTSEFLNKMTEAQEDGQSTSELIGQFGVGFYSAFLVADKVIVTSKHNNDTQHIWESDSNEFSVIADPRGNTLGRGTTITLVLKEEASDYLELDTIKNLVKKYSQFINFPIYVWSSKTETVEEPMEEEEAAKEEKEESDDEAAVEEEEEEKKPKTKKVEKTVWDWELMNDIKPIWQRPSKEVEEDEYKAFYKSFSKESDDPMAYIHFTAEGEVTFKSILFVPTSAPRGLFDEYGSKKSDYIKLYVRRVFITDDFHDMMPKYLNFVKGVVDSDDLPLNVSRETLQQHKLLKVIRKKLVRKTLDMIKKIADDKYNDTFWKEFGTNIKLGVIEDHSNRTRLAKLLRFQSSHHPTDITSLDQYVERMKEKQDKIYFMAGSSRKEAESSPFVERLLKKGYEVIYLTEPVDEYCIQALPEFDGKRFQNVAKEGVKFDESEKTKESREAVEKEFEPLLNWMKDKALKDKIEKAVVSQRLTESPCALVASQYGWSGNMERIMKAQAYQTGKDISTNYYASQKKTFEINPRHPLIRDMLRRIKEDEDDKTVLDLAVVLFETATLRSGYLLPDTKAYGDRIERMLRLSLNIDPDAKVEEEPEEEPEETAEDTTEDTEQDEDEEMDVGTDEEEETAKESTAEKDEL

binding to part 4 (Glu 602-Glu 799) [1]: did not bind
binding to recombinant human GRP94 [4]: bind
binding to recombinant rat GRP94 [5]: bind
binding to recombinant monkey GRP94 [10]: bind
B1: 2H5: anti-GRP94 human IgG antibody; CDRs SEQ ID NOS: 17 to 22, VH SEQ ID NO: 23, VL SEQ ID NO: 24 (antibody, V domains shown)
VH: EVQLLESGGGLVQPGGSLRLSCAASGFTFSGYAMSWVRQAPGKGLEWVSAISHGGSSKYYADSVKGRFTISRDNSKNTLYLQMNSLRAEDTAVYYCAKDLLSPLQSIGSYDDAMDVWGQGTLVTVSS
VL: QSVLTQPPSASGTPGQRVTISCSGSSSNIGSNTVSWYQQLPGTAPKLLIYADNNRPSGVPDRFSGSKSGTSASLAISGLRSEDEADYYCASWDDSLNAYVFGGGTKLTVL
modifications: Amino acid sequence of heavy chain variable of GRP94 2H5; Amino acid sequence of light chain variable of GRP94 2H5
cell index at the end point ([2]; 72 hours, MOCK 2.94±0.04): 2.69±0.02
cell growth inhibitory ability [2, 12]: statistically significant
protein aggregation index [3]: low
cell growth inhibitory ability [6]: no statistical significance
tumor growth inhibition compared to PBS [7]: 45%
cell index at the end point ([8]; 72 hours, MOCK 3.76±0.19): 3.54±0.03
cell growth inhibitory ability [8, 12]: no statistical significance
changes in body weight [9]: no significant changes
changes in serum levels of liver and kidney functional indices (GOT, GPT, TBIL, BUN, and CREA) [9]: no significant changes
cell index at the end point [11]: 3.98±0.09

Reference: patent US12448436B2, “Antibody specifically binding to GRP94 or antigen-binding fragment thereof, and uses thereof” (KOOKMIN UNIVERSITY INDUSTRY ACADEMY COOPERATION FOUNDATION, priority 2020, dated 2025)
